# Laboratory results taken from patent publication US20240148898A1 (CELLEMEDY, published 2024).
# How the values were obtained:
# [1] = molecular target: T1, transferrin receptor (TfR), species not stated; assay: Microscale Thermophoresis (MST) with the transferrin receptor, Example 5; species of TfR not given on the sheet or in the legend (value coincides with the Mouse TfR row of Table 5)
# T1 construct: also called the transferrin receptor
# [2] = molecular target: T2, mouse transferrin receptor (mouse, UniProt Q62351); assay: MST (Monolith NT.115), His-tag-dye-labelled protein, TfR titrated
# T2 construct: also called TfR Mouse
# Procedure: (§1) First, 100 μl of dye that specifically binds to a hexa-His tag (RED-tris-NTA 2nd Generation Dye) was prepared at a concentration of 50 nM, along with 100 μl of the produced protein at a concentration of 200 nM, followed by mixing the same and incubating at room temperature for 30 minutes. The incubated product was centrifuged at 13000 rpm for 10 minutes at 4° C. by a centrifuge, thus to separate the supernatant and obtain a dye-labeled protein.
# (§2) Then, 25 μl of 9.65 μM transferrin receptor was added to the 1st PCR tube; 10 μl of PBS-T (PBS+0.5% tween 20) buffer was added to 2nd to 16th PCR tubes; 10 μl of transferrin in the 1st PCR tube was transferred to the 2nd PCR tube; and 10 μl was again transferred from the 2nd PCR tube to the 3rd PCR tube. Likewise, this procedure was continued up to the 16th tube thus to perform ½ dilution in a sequential order so that each of the 2nd to 16th PCR tubes becomes 20 μl.
# (§3) Thereafter, 10 μl of the dye-labeled protein was added to each PCR tube, and the reaction was performed at room temperature for 1 hour.
# [3] = molecular target: T3, human transferrin receptor (human, UniProt P02786); assay: as above
# T3 construct: also called TfR Human
# Procedure: as §1, §2, §3
# T2 sequence (Q62351 89-763 limits assumed): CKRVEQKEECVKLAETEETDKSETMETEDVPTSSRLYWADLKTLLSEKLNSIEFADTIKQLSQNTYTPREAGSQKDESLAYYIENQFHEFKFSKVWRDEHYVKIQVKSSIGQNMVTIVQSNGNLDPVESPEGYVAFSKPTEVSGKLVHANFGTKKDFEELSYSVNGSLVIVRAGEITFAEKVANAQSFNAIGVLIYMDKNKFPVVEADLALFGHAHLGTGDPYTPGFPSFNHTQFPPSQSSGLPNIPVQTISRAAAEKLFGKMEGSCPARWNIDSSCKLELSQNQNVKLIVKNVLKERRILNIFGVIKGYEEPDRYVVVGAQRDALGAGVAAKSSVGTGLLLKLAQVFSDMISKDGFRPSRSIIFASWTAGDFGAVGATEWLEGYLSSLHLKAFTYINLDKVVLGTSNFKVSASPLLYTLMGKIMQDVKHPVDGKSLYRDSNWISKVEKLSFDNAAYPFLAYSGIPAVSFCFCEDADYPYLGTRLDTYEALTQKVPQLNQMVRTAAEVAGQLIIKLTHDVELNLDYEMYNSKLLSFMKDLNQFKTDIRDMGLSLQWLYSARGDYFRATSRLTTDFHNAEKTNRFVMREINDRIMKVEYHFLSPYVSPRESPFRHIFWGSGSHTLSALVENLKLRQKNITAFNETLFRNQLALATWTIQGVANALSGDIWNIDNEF
Binder,Kd [1] [nM],Kd [2] [nM],Kd [3] [nM]
"N-gp100-huHF (other, also called gp100-huHF (N-terminus); TSA insertion site N, gp100) not shown",48.3,48.3,18.5
"N-AH1-huHF (other, also called AH1-huHF (N-terminus); TSA insertion site N, AH1) not shown",,,84.6
